Source: PubChem BioAssay AID1461 (National Center for Advancing Translational Sciences (NCATS), 2008)
The whole screen tested about 220,000 compounds, of which about 2,300 (1%) were called active. The inconclusive results got no clear call from the source; some entries with a clear call stand among them for comparison. Calls come from the whole dose curve; as a rule, active = well fitted inhibition curve with a large enough effect; inconclusive = small, poorly fitted or top-dose-only effect, or effect the other way; inactive = no such curve, though single readings can be large or run the other way. Potencies of inconclusive entries are left out as doubtful fits.

target: Neuropeptide S receptor (Homo sapiens) (UniProt Q6W5P4); experiment: qHTS Assay for Antagonists of the Neuropeptide S Receptor: cAMP Signal Transduction; settings: CHO-NPSR cells, cAMP TR-FRET, antagonist mode; activity change, negative = inhibition: at 38.3 µM (top of the series) unless noted; note: nearly all actives have a fitted effect of over 50% in size
Chain of UniProt Q6W5P4 (Q6W5P4 whole entry, looked up): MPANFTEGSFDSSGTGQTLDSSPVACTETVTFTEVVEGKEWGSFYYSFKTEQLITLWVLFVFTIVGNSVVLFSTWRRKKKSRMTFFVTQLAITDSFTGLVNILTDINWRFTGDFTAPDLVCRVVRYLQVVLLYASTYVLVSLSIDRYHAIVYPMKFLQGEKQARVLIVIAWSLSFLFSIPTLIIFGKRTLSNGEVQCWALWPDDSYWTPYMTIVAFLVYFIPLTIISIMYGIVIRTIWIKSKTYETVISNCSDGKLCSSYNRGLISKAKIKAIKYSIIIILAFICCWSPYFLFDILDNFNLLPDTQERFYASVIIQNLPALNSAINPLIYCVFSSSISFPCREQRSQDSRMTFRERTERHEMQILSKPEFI
% is set by controls: 0 for no effect and ±100 for the full control effect; potency is the fitted concentration of half-maximal effect; tags give direction and shape of the fitted curve.

Compound | activity change, negative = inhibition | Potency
Cc1ccc(N=Nc2c(O)n(CN3CCOCC3)c3ccccc23)cc1 | inactive: -10.4% [at 46.1 µM] | 
Cc1ccc(C(=O)Nc2ccccc2C(=O)N2CC3(C)CC2CC(C)(C)C3)cc1 (stereo not drawn) |  | inconclusive [inhibitor, single point]
Cc1ccc(C(=O)c2sc3nsc(C)c3c2N)cc1 |  | inconclusive [inhibitor, single point]
O=C(CCc1ccc(Oc2cc([N+](=O)[O-])cc([N+](=O)[O-])c2)cc1)N1CCCCCC1 |  | inconclusive [inhibitor, single point]
O=C(c1csc2c1CCCC2)N1CCN(c2cccc(C(F)(F)F)c2)CC1 |  | inconclusive [inhibitor, single point]
COC(=O)c1ccc(C(=O)OC)c(NC(=O)CSc2cccc[n+]2[O-])c1 |  | inconclusive [inhibitor, full curve, poor fit]
CCCOC(=O)c1ccc(NC(=O)CSC2=Nc3ccccc3C3CC=NN23)cc1 (stereo not drawn) | inactive: -14% [at 46.1 µM] | 
CC1CCCCN1C(=O)Cn1cc(/C=C2/C(=O)Nc3ccccc32)c2ccccc21 (stereo not drawn) |  | inconclusive [inhibitor, partial curve]
COc1ccc(C(C)=O)cc1CSc1nncn1C | inactive: 15.1% | 
O=C(O)/C=C\C(=O)Nc1ccc(N2CCN(c3ccc(Cl)cc3)CC2)cc1 | inactive: 48.7% | 
CCCN(CCC)c1ccc(/C=C/c2ccc3cc(OCC)ccc3n2)cc1 |  | inconclusive [activator, single point]
C1CCC(C(CC2CCCCN2)C2CCCCC2)CC1 (stereo not drawn) |  | active: 12.6 µM
O=[N+]([O-])C(/C=C(\Cl)[N+](=O)[O-])=C(N1CCCCC1)N1CCCCC1 | inactive: -15.2% | 
COc1ccccc1OCCn1cc(C(=O)c2ccco2)c2ccccc21 |  | inconclusive [inhibitor, partial curve]
CCn1cc(CN2CCc3c([nH]c4ccccc34)C2c2ccc(F)c(OC)c2)c(C)n1 (stereo not drawn) |  | inconclusive [activator, single point]
CC(=O)CCc1oc2c([N+](=O)[O-])cccc2c1-c1ccc(C)o1 | inactive: 23.6% | 
O=C(Nc1cc(Cl)ccc1O)c1snnc1-c1ccccc1 |  | inconclusive [inhibitor, single point]
Cc1ccc(CNS(=O)(=O)c2ccc3c(c2)OCCO3)cc1 | inactive: 0.775% | 
CC1(C)SC(=S)N(/N=C/c2ccc(O)cc2)C1N(O)C(=O)Nc1ccc([N+](=O)[O-])cc1 (stereo not drawn) |  | inconclusive [inhibitor, single point]
Cc1cc2c(s1)c1cnn(Cc3ccccc3F)c(=O)c1n2C |  | inconclusive [activator, single point]
Cc1ccc(NC(=O)/C(CN(C)C)=N\O)cc1 | inactive: 0.541% [at 46.1 µM] | 
O=C1c2ccccc2C2=Nc3ccccc3SC(c3cccc(F)c3)C12 (stereo not drawn) |  | inconclusive [inhibitor, single point]
COc1ccc(-c2nnc(OCc3ccccc3)c3ccccc23)cc1 |  | inconclusive [inhibitor, single point]

Compound | activity change, negative = inhibition | Potency
CCCCc1c(C)nn(-c2nnc3c4ccccc4n(CC)c3n2)c1C |  | inconclusive [inhibitor, single point]
Cc1cc(C)cc(N(C(=O)Cc2cccs2)C(C(=O)NC2CCCCC2)c2ccccn2)c1 (stereo not drawn) |  | inconclusive [inhibitor, single point]
Cc1c(C(=O)NN2CCCCC2)nn(-c2ccc(Cl)cc2Cl)c1-c1ccc(I)cc1 |  | active: 10 µM
Cc1ccc2nc(NC(=O)CCNS(=O)(=O)c3ccc(Br)s3)sc2c1 |  | inconclusive [inhibitor, single point]
c1ccc2sc(SN3CCOCC3)nc2c1 | inactive: -4.56% [at 46.1 µM] | 
COc1ccc(C2/C=C\CN(C(=O)C3CC3)[C@H](Cc3ccccc3)C(=O)N2Cc2ccc(F)cc2)cc1 (stereo partly drawn) |  | inconclusive [inhibitor, single point]
c1ccc(Cn2nnnc2C(c2cccnc2)N2CCN(c3ccccc3)CC2)cc1 (stereo not drawn) |  | inconclusive [inhibitor, single point]
Clc1ccc2c(N/N=C/c3cccc(Br)c3)ccnc2c1 |  | inconclusive [inhibitor, single point]
COC(=O)c1sc(NC(=O)CSc2nnnn2-c2cccc(OC)c2)nc1C | inactive: -10.5% [at 46.1 µM] | 
CCCCCn1c2nc3ccccc3nc2c2c(=O)n(CC3CCCO3)c(C)nc21 (stereo not drawn) |  | inconclusive [inhibitor, single point]
O=C(COc1ccccc1)Nc1nnc(-c2ccc(Cl)s2)o1 | inactive: -6.35% [at 46.1 µM] | 
COc1ccc(-n2c(-c3ccc(F)cc3)cnc2SCC(=O)NCc2ccco2)cc1 |  | inconclusive [inhibitor, partial curve]
CN(C)c1cc2c(c(N(C)C)c1)C(=O)c1ccccc1C2=O |  | inconclusive [inhibitor, single point]
O=C(O)c1ncsc1-c1ccccc1 | inactive: -0.445% | 
CN=C(Nc1cc(Cl)ccc1Cl)SC1CC(=O)N(c2ccc(C(=O)OC)cc2)C1=O (stereo not drawn) |  | inconclusive [inhibitor, single point]
CCOC(=O)C(NC(=O)c1cccc(Cl)c1)(Nc1sc2c(c1C(N)=O)CCC2)C(F)(F)F (stereo not drawn) |  | inconclusive [inhibitor, partial curve]
CCN1CCN(c2cc(C)c3cc(NC(=S)N4CCN(c5ccccc5F)CC4)ccc3n2)CC1 | inactive: -29% | 
COc1ccc(C(=O)/C=C/C(=O)N(CC(=O)NC2CCCCC2)Cc2ccccc2)c(O)c1 |  | inconclusive [activator, full curve]
CCOC(=O)c1sc(=NC(=O)c2cc(OC)c(OC)c(OC)c2)n(C)c1C |  | inconclusive [inhibitor, single point]
O=C(Nc1cccc(Cl)c1)Nc1csc([N+](=O)[O-])c1 |  | inconclusive [activator, partial curve]
CC1CCCCN1C(=O)c1ccc(COc2ccc([N+](=O)[O-])cc2)o1 (stereo not drawn) | inactive: -14.8% | 
O=C1Nc2ccccc2/C1=N\N=C\C1=C(N2CCOCC2)C(=C\c2ccccc2)/CC1 |  | inconclusive [inhibitor, single point]
COc1ccc(NC(=S)Nc2ccccn2)c(OC)c1 |  | inconclusive [inhibitor, single point]

Compound | activity change, negative = inhibition | Potency
O=C(O)c1ccc(Cn2c(SCc3cc(=O)n4cc(Br)ccc4n3)nc3ccsc3c2=O)cc1 |  | active: 10 µM
O=C(CSc1nc2ccc([N+](=O)[O-])cc2s1)c1ccc2ccccc2c1 |  | inconclusive [activator, single point]
COCCCn1c(SCc2nnc(-c3ccc(OC)c(OC)c3)o2)nc2ccccc2c1=O | inactive: -19.3% [at 46.1 µM] | 
COc1cccc(CNc2ncc(Br)cc2Br)c1O |  | active: 10 µM
COc1ccc(OCC(=O)Nc2cc(-c3nn(C)c(=O)c4ccccc34)ccc2OC)cc1 |  | inconclusive [inhibitor, single point]
O=C(CCCn1c(SCC(=O)c2ccc(Cl)cc2)nc2ccccc2c1=O)NCc1ccco1 |  | inconclusive [inhibitor, partial curve, poor fit]
Cc1ccc2[nH]c(=O)c(COC(=O)c3cccs3)cc2c1 |  | inconclusive [inhibitor, single point]
C[C@@H](C(=O)NCc1ccc(S(C)(=O)=O)cc1)[C@H]1C[C@]1(C)[C@H](NC(=O)OCc1ccccc1)c1ccccc1 | inactive: -9.69% | 
Cc1cccn2c(=O)c(/C=C(\C#N)S(=O)(=O)c3ccc(Cl)cc3)c(N3CCC(C(N)=O)CC3)nc12 |  | inconclusive [inhibitor, single point]
N#Cc1ccc(-c2ccc(Cl)cc2)nc1SCC(=O)c1cccc(Cl)c1 |  | inconclusive [inhibitor, single point]
O=C1c2ccccc2-c2n[nH]c(=O)c3ccc(N4CCCCC4)c1c23 | inactive: -13.4% | 
CCOC(=O)c1c(-c2ccccc2Cl)cn2ccccc12 |  | inconclusive [activator, partial curve]
CCC(CC)COC(=O)C(C#N)c1nc2ccccc2nc1N1CCOCC1 (stereo not drawn) |  | inconclusive [inhibitor, partial curve]
CC(C)CC(=O)NC(=S)Nc1ccc(NC(=O)c2cccs2)cc1 |  | inconclusive [inhibitor, single point]
O=C(Nc1ccc(Cl)cc1)N(Cc1nc2ccccc2c(=O)[nH]1)Cc1cccs1 |  | inconclusive [inhibitor, partial curve]
COc1ccc(-n2nc(C(=O)NCC(=O)Nc3cccc(C)n3)c3ccccc3c2=O)cc1 |  | inconclusive [inhibitor, single point]
COc1ccc2nc(NC(=O)Nc3cccc4ccccc34)sc2c1 | inactive: -1.63% | 
CCOC(=O)C1CCN(C(=O)c2oc3ccc(S(=O)(=O)N4CC(C)CC(C)C4)cc3c2C)CC1 (stereo not drawn) |  | inconclusive [inhibitor, partial curve]
COc1ccc(C(=O)NC(=S)Nc2ccc3c(c2)Cc2ccccc2-3)cc1 |  | inconclusive [inhibitor, single point]
COc1ccc(C(=O)/C=C/C(=O)N(CC(=O)NC2CCCCC2)CC2CCCO2)c(O)c1 (stereo not drawn) |  | inconclusive [activator, partial curve]
CCCN(c1ccc(C(C)C)cc1)S(=O)(=O)c1c(C)[nH]c(=O)[nH]c1=O |  | inconclusive [inhibitor, single point]
Cc1cc(N2CCN(C(=O)c3ccco3)CC2)n2nc(-c3cccc(Cl)c3)cc2n1 |  | inconclusive [inhibitor, partial curve]
